Test results as given in PubChem BioAssay AID485344 (National Center for Advancing Translational Sciences (NCATS), 2010).
Screen size: about 340,000 compounds; about 6,900 (2%) were called active. Rule as the data show it: active = inhibition above about 30%; inactive = below that, where a call was filed. The entries are a selection whose mix differs from that of the whole data set. Where no call is shown, the source filed none. The source holds several records for some structures; these can differ, active in one and inactive in another.

Target: D(2) dopamine receptor (Homo sapiens) (UniProt P14416)
Test: HTS Assay for Allosteric Antagonists of the Human D2 Dopamine Receptor: Primary Screen for Antagonists; also: 0% is about no effect
Conditions: HEK293 TREx D2 cells, calcium flux, dopamine EC80; at 10 µM; stronger effect = higher value
Procedure, shortened: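 Calcium flux kinetic readout in an inducible HEK293 TREx D2 line plated overnight at 30 C. After 180 s compound exposure, an EC80 dopamine challenge follows with another 180 s kinetic read to detect antagonism.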

Sequence of UniProt P14416 (P14416 whole entry, looked up): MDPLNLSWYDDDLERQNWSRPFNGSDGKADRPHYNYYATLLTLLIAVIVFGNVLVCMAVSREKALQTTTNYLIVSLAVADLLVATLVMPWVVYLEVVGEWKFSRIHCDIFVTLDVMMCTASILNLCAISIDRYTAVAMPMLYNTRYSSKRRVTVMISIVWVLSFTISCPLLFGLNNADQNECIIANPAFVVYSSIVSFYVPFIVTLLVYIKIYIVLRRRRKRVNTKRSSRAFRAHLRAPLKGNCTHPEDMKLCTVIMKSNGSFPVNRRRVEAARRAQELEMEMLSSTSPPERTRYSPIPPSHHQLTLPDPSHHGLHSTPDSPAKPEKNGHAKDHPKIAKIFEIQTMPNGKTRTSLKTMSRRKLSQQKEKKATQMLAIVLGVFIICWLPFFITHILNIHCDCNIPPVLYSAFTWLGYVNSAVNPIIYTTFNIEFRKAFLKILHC

Row | SMILES | inhibition
1 | CCOC(=O)CSc1nc2cc3c(cc2c(=O)n1CCCC(=O)NCCc1ccc(OC)c(OC)c1)OCO3 | -9.79%
2 | CCOC(=O)c1sc(N2C(=O)c3oc4ccc(C)cc4c(=O)c3C2c2ccccc2F)nc1C (centres undefined) | -3.5%
3 | CCc1cccc(NS(=O)(=O)c2ccc3c(c2)n(C)c(=O)c(=O)n3C)c1 | -1.79%
4 | Cc1ccc(CNC(=O)CCCn2nc(C)c3c(C)n(-c4ccccc4)nc3c2=O)cc1 | -14.2%
5 | CCOC(=O)c1c(NC(=O)CSc2cn(CCNC(=O)c3ccc(OC)c(OC)c3)c3ccccc23)sc2c1CCCC2 | 13.5%
6 | CCCN(C(=O)c1cc2c(=O)oc3ccccc3c2s1)c1cccc(Cl)c1 | 9.15%
7 | CCOC(=O)N1CCN(C(=O)CN(c2cccc(Cl)c2)S(=O)(=O)c2ccccc2)CC1 | -0.737%
8 | CCCc1cc(=O)n2[nH]c(NC(=O)c3ccccc3Cl)nc2n1 | 11.4%
9 | CCOC(=O)c1ccc(N2C(=O)c3[nH]nc(-c4ccc(OC)cc4)c3C2c2ccccc2Cl)cc1 (centres undefined) | 13.7%
10 | Cc1ccc(NC(=O)N2CCc3cc(S(=O)(=O)N4CCC(C)CC4)ccc32)cc1F | 1.84%
11 | COc1ccc(C2c3c(n(C)c4ccccc34)C(=O)N2CC(=O)Nc2cc(Cl)ccc2C)cc1 (centres undefined) | 1.27%
12 | O=C(Nc1ccccc1)N(Cc1cccs1)c1ccc(F)cc1 | -18.5%
13 | COC(=O)c1ccc(NC(=O)CC2Nc3cc(C)c(C)cc3NC2=O)cc1 (centres undefined) | -9.77%
14 | Cc1cc(C)n(-c2nc3ccccc3nc2Nc2ccc(Cl)c(Cl)c2)n1 | 8.52%
15 | COc1ccccc1NCc1cccn1-c1nnc(N2CCCCCC2)s1 | -6.96%
16 | Cc1cc(C)cc(OCC(=O)NC(Cc2c[nH]c3ccccc23)C(=O)O)c1 (centres undefined) | 20.6%
17 | CCOc1ccc(S(=O)(=O)Nc2ccc3oc(C)c(C(=O)OC(C)C)c3c2)cc1 | 17.9%
18 | Cc1cccc(OCC(=O)Nc2c(C(=O)N3CCN(c4ccccc4F)CC3)oc3ccccc23)c1 | 0.756%
19 | CCCCC(=O)OCc1cc(=O)n2nc(C3CCCCC3)sc2n1 | 14.6%
20 | CCC1CN(C(=O)Nc2cc(C)ccc2OC)c2cc(Cl)ccc2O1 (centres undefined) | 0.872%
21 | Cc1ccc(NC(=O)CSc2ccc3nnc(CCNS(=O)(=O)c4ccccc4)n3n2)cc1Cl | 5.94%
22 | O=C(Nc1ccccc1)Nc1nc2ccccc2s1 | active: 38.1%
23 | Cc1ccc(Cl)cc1NC(=O)N1CCC(CN2CCCCCC2)CC1 | 3.56%
24 | COc1ccccc1N1CCN(C(=O)c2ccoc2C)CC1 | active: 35%

Row | SMILES | inhibition
25 | Cc1ccc2cc(CN(C)C(=O)c3cccc(Cl)c3)c(=O)[nH]c2c1 | 6.21%
26 | Cc1ccccc1NC(=O)c1cccc2c(=O)c3c([nH]c12)CCCC3 | -2.18%
27 | COc1cc(C(=O)NC2CC3CCCC(C2)N3Cc2ccccc2)cc(OC)c1OC (centres undefined) | active: 83.7%
28 | CCCCNc1nc2c(c(=O)n(C)c(=O)n2C)n1CC(O)COc1ccccc1C (centres undefined) | -2.49%
29 | O=C(Nc1ccc(F)c(Cl)c1)C1CCN(S(=O)(=O)c2ccc3[nH]c(=O)ccc3c2)CC1 | -18.6%
30 | O=C(COc1ccc(Br)cc1F)NC1CCN(Cc2ccccc2)CC1 | active: 52.9%
31 | CCOC(=O)c1c(NC(=O)c2ccc(Br)cc2)sc2c1CCCC2 | 6.85%
32 | COc1cccc(N2CCN(Cc3nc(N)nc(N4CCCc5ccccc54)n3)CC2)c1 | active: 58.9%
33 | O=C(O)c1cccc(Nc2ncnc3ccc(Br)cc23)c1 | 16.4%
34 | Cc1nn(C)c2c1c(C(F)(F)F)cc(=O)n2CC(=O)N1CCCCC1 | 8.01%
35 | Cc1ccc(C(=O)Nc2nc3n(n2)C(c2ccc(F)cc2)C=C(c2ccccc2)N3)cc1 (centres undefined) | -8.93%
36 | CCOc1ccccc1-n1nnc(-c2nc(-c3ccccc3C)no2)c1C | -8.76%
37 | Cc1ccc2nc(-c3cccc(NC(=O)c4ccc(Br)o4)c3)oc2c1 | -0.718%
38 | O=C(Cn1cc(C(=O)c2ccncc2)c(=O)c2cc(F)ccc21)Nc1ccc(Cl)cc1 | -25.9%
39 | O=C1c2[nH]nc(-c3ccccc3O)c2C(c2cccc(O)c2)N1Cc1ccncc1 (centres undefined) | 11.4%
40 | COCCCNC(=O)N1[C@H](c2cccs2)[C@@H](C)C(=O)[C@@H](C)[C@@H]1c1cccs1 | 20%
41 | O=C(CN1C(=O)COc2ccc(S(=O)(=O)N3CCCC3)cc21)N1CCN(c2ccc(Cl)cc2)CC1 | -1.53%
42 | O=C(NC1CC2CCCC(C1)N2Cc1ccccc1)c1cccc(F)c1 (centres undefined) | active: 83.5%
43 | Cc1ccc2c(c1)N(S(=O)(=O)c1cc(-c3onc(C)c3C)ccc1C)CCO2 | -7.35%
44 | COc1cccc(-n2cc(C(=O)OCc3ccc(F)c(F)c3)c3ccccc3c2=O)c1 | 6.45%
45 | COc1ccccc1CNC(=O)CCn1c(=O)c2ccccc2n(CC(=O)Nc2ccc(Br)cc2F)c1=O | 3.09%
46 | Cc1ccc(O)c(NC(=O)c2noc3c2CCCC3)c1 | 14.5%
47 | CCOCCn1ccc2c(OCC(=O)NCc3ccc(C)cc3)cccc2c1=O | -0.337%
48 | CN(C)CCNC(=O)c1ccc2c(c1)N(Cc1ccccc1)C(=O)c1ccccc1S2(=O)=O | 5.35%

Row | SMILES | inhibition
49 | CCCSc1ncc(Cl)c(C(=O)NCc2ccc(OC)cc2)n1 | -12.9%
50 | COc1ccc(-c2cn3nc(N4CCCC(C(=O)Nc5cccc(Cl)c5C)C4)sc3n2)cc1 (centres undefined) | -0.979%
51 | COc1cccc(-c2cc(C(=O)Nc3cc(OC)c(OC)c(OC)c3)no2)c1 | active: 43.7%
52 | N#Cc1ccccc1NC(=O)C(=O)NCCc1csc2nc(-c3cccc(F)c3)nn12 | 12.5%
53 | COc1ccc(OC)c(CNC(=O)CN(c2ccc(C)cc2)S(=O)(=O)N(C)C)c1 | 16.3%
54 | Cc1cccc(NC(=O)N2CCN(C)c3ncccc32)c1C | -11.3%
55 | CCOc1ccccc1CNC(=O)c1ccc(NC(=O)N2CC(C)Sc3ccccc32)cc1 (centres undefined) | 8.75%
56 | O=C(NC1(C(F)(F)F)C(=O)Nc2c1c(=O)[nH]c(=O)n2-c1ccccc1)c1ccccc1 (centres undefined) | 2.89%
57 | CCOc1ccc(C(=O)NCc2nc3cccnc3n2Cc2cccc(OC)c2)cc1 | -11.1%
58 | CCCN(CCC)C(=O)Cn1c(SCc2cccc(C(F)(F)F)c2)nc2cccnc21 | 2.27%
59 | O=C(Cn1c(=O)oc2cc(S(=O)(=O)N3CCCCCC3)ccc21)Nc1ccc(F)cc1F | -3.62%
60 | O=C(Nc1cc2c(cc1C(=O)c1cccc(Br)c1)OCCO2)c1ccccc1F | -7.61%
61 | CCOC(=O)c1cc2c(=O)n3ccccc3nc2n(Cc2ccco2)c1=NC(=O)c1ccc(C)c(C)c1 | 0.946%
62 | CN(c1ccccc1)S(=O)(=O)c1nnc(NC(=O)COc2ccccc2)s1 | 22.4%
63 | CC1(C)S[C@@H]2[C@H](NC(=O)Cc3ccccc3)C(=O)N2[C@H]1C(=O)O | active: 32.8%
64 | Cc1ccc(-n2c(=O)c3ccc(C(=O)NCc4ccco4)cc3n(CC(=O)Nc3ccccc3C(F)(F)F)c2=O)cc1 | 12.1%
65 | Cc1cc(C)cc(-n2c(C)cc(C(=O)C(=O)Nc3nnc(C)s3)c2C)c1 | 20.7%
66 | CN(C(=O)Cn1cnc2onc(-c3ccc(F)cc3)c2c1=O)c1ccccc1Cl | 4.99%
67 | CCCN(C(=O)Cn1ncc2c1-c1ccccc1OC2)c1cccc(C)c1 | -0.0504%
68 | CCc1ccc(-c2nc(SCC(=O)NCC3CCCO3)c(-c3ccc(C)cc3)[nH]2)cc1 (centres undefined) | 20%
69 | Cc1cccc(C)c1NC(=O)Cn1c(=O)n(CCCS(=O)(=O)C2CCCCC2)c(=O)c2ccccc21 | 13.4%
70 | Cc1cccc(N2CCN(c3ccc(C(=O)O)cc3NC(=O)c3cccc(Cl)c3)CC2C)c1 (centres undefined) | -3.57%
71 | CSCC[C@@H](C(=O)Nc1cccc(F)c1)N1Cc2ccccc2C1=O | 9.66%
72 | O=C(CSc1nccn1C1CCCC1)Nc1cccc(F)c1 | -15.4%

Row | SMILES | inhibition
73 | CCOC(=O)C1CCN(c2c(C(=O)c3ccc(OC)cc3)cnc3ccccc23)CC1 | 6.9%
74 | COc1ccc(CCNC(=O)c2nc(SCc3ccccc3F)ncc2Cl)cc1OC | -18.5%
75 | CCOCCc1nn2c(=O)cc(COC(=O)Cc3ccccc3)nc2s1 | 4.12%
76 | COc1ccc(NC2=CC(=O)CC(c3ccccc3)C2)c(OC)c1 (centres undefined) | active: 31%
77 | COc1ccc(CCNC(=O)[C@H](C)NC(=O)N2CCn3c2nc2ccccc23)cc1OC | active: 37.2%
78 | Cc1ccc(NC(=O)NC(=O)N(C(C)C)S(=O)(=O)c2ccc(C)cc2)cc1 | active: 43.5%
79 | Cc1nn2c(=O)cc(COC(=O)c3ccc(NC(=O)c4cccc(Br)c4)cc3)nc2s1 | -5.23%
80 | COc1ccccc1NC(=O)CSc1nc(-c2ccc(C)cc2)nc2c1Cc1c(CO)cnc(C)c1O2 | 10.6%
81 | COc1ccc(-c2cn3nc(N4CCCC(C(=O)Nc5ccccc5OC)C4)sc3n2)cc1 (centres undefined) | 3.95%
82 | CCn1c(C)c(C)c2cc(C(=O)NCc3ccc(OC(C)C)cc3)ccc21 | 5.43%
83 | COc1ccc2c(c1)cc1c(=O)n(CC(=O)NCCCOC(C)C)nc(C)n12 | -11.2%
84 | COc1cc2c(C(=O)N3CCN(c4cccc(C(F)(F)F)c4)CC3)cn(CC(C)C)c(=O)c2cc1OC | -7.78%
85 | COc1ccc(NC(=O)Cn2c(=O)n(Cc3ccc4c(c3)OCO4)c(=O)c3ccc(C(=O)NC4CCCCC4)cc32)cc1 | -2.54%
86 | CCOCCCNc1nc2ccccc2n2c(CC)nnc12 | -4.3%
87 | O=C(NC1(C(F)(F)F)C(=O)Nc2c1c(=O)[nH]c(=O)n2-c1ccccc1)c1ccccc1Cl (centres undefined) | -7.94%
88 | COc1cc(OC)cc(-c2cc3nc(C)c(CCC(=O)Nc4ccc(C(C)=O)cc4)c(C)n3n2)c1 | -1.2%
89 | C=Cc1ccc(Cn2c(=O)cc(C)c3c(C)nn(-c4ccccc4)c32)cc1 | 3.31%
90 | CC(C)c1ccc(CNc2nc(-c3ccco3)nn2C(=O)c2ccc([N+](=O)[O-])cc2)cc1 | -17.6%
91 | CSCCC(NS(=O)(=O)c1ccc2c(c1)oc(=O)n2C)C(=O)Nc1ccc(Cl)cc1 (centres undefined) | -17.3%
92 | COc1ccc(OCC(=O)N(Cc2cccs2)c2ccc(OC)cc2)cc1 | -0.91%
93 | COCc1cc(C)nc2sc3c(c12)NC(c1ccc(O)c(OC)c1)N(c1ccccc1)C3=O (centres undefined) | 15.2%
94 | COc1ccccc1CNC(=O)C1CCCN(c2nnc(C)c3c(C)n(-c4ccccc4)nc23)C1 (centres undefined) | -5.37%
